Inconclusive results, whose numbers are uncertain, are shown with a selection of clear calls. Potencies of inconclusive entries are left out as doubtful fits. Some structures have more than one record in an assay (separate samples or runs), and their calls can disagree. Calls of active or inactive are those of the source. Calls follow the shape of the dose curve; as a rule, active = well fitted inhibition curve with a large enough effect in the repeat runs; inconclusive = weak or mixed curves; inactive = no such curve, though single readings can be large or run the other way.
These compounds were tested against Aromatase (Homo sapiens) (UniProt P11511) (assay: qHTS assay to identify aromatase inhibitors (AID 743083; also: nearly all actives have a fitted effect of over 55% in size)). Settings: MCF-7 aro ERE, testosterone-driven ERE luciferase, 24 h; series mostly up to 70.3 µM.
Potency is read from the fitted curve at half-maximal effect; tags tell the direction and shape of the fitted curve.

Chain of UniProt P11511 (P11511 whole entry, looked up): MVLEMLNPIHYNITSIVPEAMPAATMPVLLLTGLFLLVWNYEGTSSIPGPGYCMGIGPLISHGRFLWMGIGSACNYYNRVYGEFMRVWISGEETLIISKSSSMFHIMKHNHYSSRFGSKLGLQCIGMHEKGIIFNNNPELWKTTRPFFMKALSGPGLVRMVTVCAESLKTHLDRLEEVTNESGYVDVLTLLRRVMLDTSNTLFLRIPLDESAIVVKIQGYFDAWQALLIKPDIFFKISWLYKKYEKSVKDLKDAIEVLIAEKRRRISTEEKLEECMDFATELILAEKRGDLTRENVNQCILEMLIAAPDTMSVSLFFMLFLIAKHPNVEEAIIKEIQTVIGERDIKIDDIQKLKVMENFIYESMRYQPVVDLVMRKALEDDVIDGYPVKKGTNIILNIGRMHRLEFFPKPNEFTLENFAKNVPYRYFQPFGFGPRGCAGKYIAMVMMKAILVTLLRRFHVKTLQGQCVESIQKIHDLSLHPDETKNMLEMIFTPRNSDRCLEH

**Q.** How did the Potency turn out when `CC(=O)N/N=C/c1ccc([N+](=O)[O-])o1` was run?
**A.** Its Potency is inconclusive [inhibitor, single point].

**Q.** `COc1ccc(OC(F)(F)F)cc1CN[C@H]1CCCN[C@H]1c1ccccc1` was tested. Which Potency did it give?
**A.** The Potency was inconclusive [inhibitor].

**Q.** With `CC[C@]1(O)C[C@@H]2CN(CCc3c([nH]c4ccccc34)[C@@](C(=O)OC)(c3cc4c(cc3OC)N(C)[C@H]3[C@@](O)(C(=O)OC)[C@H](OC(C)=O)[C@]5(CC)C=CCN6CC[C@]43[C@@H]65)C2)C1` as the compound, how does the Potency read?
**A.** The Potency was inconclusive [inhibitor, single point].

**Q.** `CC1(CN2CCC(n3c(=O)[nH]c4ccccc43)CC2)OCc2ccccc2-n2cccc21` (stereo unspecified) was tested. Which Potency did it give?
**A.** The Potency was inconclusive [inhibitor, single point].

**Q.** Which Potency does the source give for `CCCCC/C=C\C=C\C(=O)OCC` here?
**A.** The Potency was inconclusive [inhibitor, single point].

**Q.** `Oc1c(I)cc(Cl)c2cccnc12` was tested. Which Potency did it give?
**A.** Its Potency is active: 27.3 µM.
